Among the data in the RNAGym collection of RNA variant scans (doi:10.1093/nar/gkz1192) are self-cleavage values, retold here.

Read counts are not given, so values of variants with three or more changes are uncertain.

B1: CPEB3 Ribozyme (parent)
chain: UAACAGGGGGCCACAGCAGAAGCGUUCACGUCGCAGCCCCUGUCAGAUUCUGGUGAAUCUGCGAAUUCUGCUGUAUAUCUC

Variants of B1 are the subject of this series. The series is described as follows: self-cleavage, relative activity (ratio to wild type); higher = more cleavage; in vitro, sequencing. The method, boiled down: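 Barcoded CPEB3 ribozyme mutants, produced by rounds of error-prone PCR, self-cleaved while being transcribed with T7 RNA polymerase for 5 hours at 37°C and during a subsequent 15 min DNase I step before EDTA was added. Sequencing of template-switched cDNA on Illumina gave cleaved and total reads, and DNA sequencing assigned barcodes to variants. Each variant's relative activity is its cleaved/total read fraction divided by the unmutated ribozyme's fraction, averaged across three batches. A variant needed a minimum of 5 reads.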
For C62U U72C A75G, the self-cleavage was determined as 0.21.
Turning to G63A U72C U74C, the self-cleavage stood at 1.17.
Turning to A57G U60A U67C, the self-cleavage was determined as 0.14.
For U60A U72C G73U C81U the value was 0.73; for C62A U69C U74C, 0.3.
As to A57G A64U U76C, the self-cleavage was 0.38.
In the case of U60A U66A G73A U74C it was 0.38; in that of U60C A65C U72A, 0.19; in that of A57U C68U U72C, 0.46.
For C62A G73A U80C the value was 0.14; for U58C U66C U76A, 0.15.
Consider C68U U72G C79A U80A, for which the self-cleavage amounted to 1.2.
For G63C A65U U66C U69A the value was 0.27.
Consider G63C A64C U69A U78A, for which the self-cleavage was 0.22.
For A65U U69C U72A the value was 0.24; for C68G A75U C81U, 0.45.
In the case of A64U U69G U80A it was 0.23; in that of A57G G70C U80A, 0.38.
Take A64G A65G U69C U72A A77G: the self-cleavage turned out to be 0.3.
As to C59G U60C U78C, the self-cleavage turned out to be 0.19.
On to A57U A64G U78C, for which the self-cleavage came to 0.55.
For U58C U60A U69C the value was 0.27.
As for A57G U58A U78C, the self-cleavage worked out at 0.23.
On to G63A U66C U69C, for which the self-cleavage amounted to 0.27.
As to G61A U66C U67A U80C, the self-cleavage was found to be 0.21.
In the case of U66C C79U U80C it was 0.31; in that of U58A U74C U76A, 0.62.
Consider G73A U76C U78C, for which the self-cleavage amounted to 1.3.
For U58C C59G U60C the value was 0.21; for A57G U67C A75U U80A, 0.44.
As to A65G U67C U78G, the self-cleavage stood at 0.21.
For A65G U67C U78C, the self-cleavage amounted to 0.22.
With A64G G70A C81U, the self-cleavage was 0.38.
On to A57U U58A A64G U67A, for which the self-cleavage is 0.15.
In the case of A57G U60C U67C it was 0.24; in that of U58C C62G U67A, 0.2; in that of U58A U67C C68U U72C, 0.16.
For U78C C79G U80C, the self-cleavage turned out to be 1.25.
On to A65G U72A A77U, for which the self-cleavage is 0.38.
Take U67C U72C U78C U80C: the self-cleavage is 0.24.
Consider A65G U66C U69C, for which the self-cleavage is 0.12.
With U60C U69C U72C U80A, the self-cleavage is 0.4.
G61U U80C C81U: the self-cleavage came out at 0.93.
In the case of A64U U69A U78C U80A, the self-cleavage came out at 0.45.
In the case of C62U A65U U67A it was 0.35.
For U69A A75C U78C, the self-cleavage was found to be 0.95.
On to U67A U72C G73U, for which the self-cleavage worked out at 0.69.
For C59A U78A C79A the value was 0.72.
For U60A A65G U72A the value was 0.35; for A57G U60C U72C, 0.42; for G63A A65G U69A, 0.34.
Consider A64G U69A U76A, for which the self-cleavage was determined as 0.34.
For the variant U60C A64U U76A A77U, the self-cleavage was 0.24.
In the case of A57G A77G U80C, the self-cleavage was determined as 0.43.
For A57G U60C U76C the value was 0.48; for U58A C68A G73A, 0.23; for G63U U72C U78C, 1.22.
For the variant U66C U72C U74A, the self-cleavage is 0.63.
Regarding A65G U66C G73A, the self-cleavage turned out to be 0.18.
For A65G U66C G73C, the self-cleavage is 0.26.
Consider A57G U69A U78C, for which the self-cleavage worked out at 0.5.
As to A64G U74A C79U, the self-cleavage stood at 1.2.
Take C68A U74C U80C: the self-cleavage stood at 0.67.
As to U60A U67C U69A U80C, the self-cleavage turned out to be 0.36.
A57G C71A U74C: the self-cleavage is 0.3.
For U60A U66C U80C, the self-cleavage is 0.28.
Consider G61A A75G A77U, for which the self-cleavage was 0.61.
In the case of A65G U67A G73U it was 0.2; in that of U66C U69G U72C, 0.29.
As to A65G U69C U72A U76C, the self-cleavage was determined as 0.18.
Turning to A64G U74C A75U, the self-cleavage stood at 1.32.
For U58G U74C C81U, the self-cleavage came to 0.79.
On to A57G A64G U78A, for which the self-cleavage worked out at 1.15.
U60A A64U A65G: the self-cleavage is 0.26.
For A65C U69A U80A the value was 0.37; for U69C A75U U78C, 0.53; for U60C A65G U72A, 0.25.
Consider U60C U66C A75U U76C, for which the self-cleavage is 0.32.
In the case of U58C A65G A75U U80C it was 0.24; in that of U67C A77G U80C, 0.29.
Turning to A77U U78C C79G U80C, the self-cleavage worked out at 1.18.
In the case of C62A U66C G70U U72G U80C it was 0.06; in that of U60C U67A A77G, 0.25.
For the variant U60C U78A U80A, the self-cleavage is 0.99.
With C59A C62U U72C, the self-cleavage was determined as 0.06.
For the variant C59U U69C U80C, the self-cleavage is 0.35.
Turning to A57G U60A A64U U72C, the self-cleavage turned out to be 0.27.
Turning to A57G G73A U80C, the self-cleavage was determined as 1.29.
C62A G73C U76C: the self-cleavage stood at 0.14.
With A64G A77G U78C, the self-cleavage worked out at 0.46.
For G61A G63A U67C the value was 0.31; for A57U A64U A65C, 0.1.
For the variant A57U U69C U78C, the self-cleavage was 0.47.
Consider A65G U78C U80C, for which the self-cleavage turned out to be 0.21.
As to G63U A65G U66C, the self-cleavage was determined as 0.1.
In the case of A57G U72A U74A, the self-cleavage was found to be 1.08.
Regarding U72C A77U U78C, the self-cleavage came out at 1.2.
As to U58C G63A U78A, the self-cleavage was 0.63.
For U58C U60A U66C the value was 0.16.
As to A57G G63A A64C U76C U80C, the self-cleavage stood at 0.32.
U72A A75G U78C: the self-cleavage turned out to be 1.04.
For A57G U72C G73A U76C, the self-cleavage is 1.22.
Turning to C62A U76A U78C, the self-cleavage is 0.16.
Consider U58A A64U U67C U69C, for which the self-cleavage came out at 0.52.
In the case of U60C U69A U72A it was 0.32.
Take U60A U67A U72A A75G: the self-cleavage amounted to 0.26.
A65G U74A C79A: the self-cleavage was determined as 1.05.
Turning to A64G U66C U76A A77G, the self-cleavage came out at 0.15.
U60A A64G U78C: the self-cleavage was determined as 0.4.
With U67C A77G C81U, the self-cleavage was 0.36.
In the case of G63C A65G U72A it was 0.37.
Take A64G U66C A77G: the self-cleavage was determined as 0.25.
In the case of G61A U66A U74C it was 0.38; in that of C62A U66C U78A, 0.14; in that of A65G C71U U72C U80C, 0.3.
